The other results are listed elsewhere or left out. These are noisy estimates, calculated here from bound and input reads.
Biological target: T1, Pho4 (S. cerevisiae) (UniProt P07270)
T1 sequence: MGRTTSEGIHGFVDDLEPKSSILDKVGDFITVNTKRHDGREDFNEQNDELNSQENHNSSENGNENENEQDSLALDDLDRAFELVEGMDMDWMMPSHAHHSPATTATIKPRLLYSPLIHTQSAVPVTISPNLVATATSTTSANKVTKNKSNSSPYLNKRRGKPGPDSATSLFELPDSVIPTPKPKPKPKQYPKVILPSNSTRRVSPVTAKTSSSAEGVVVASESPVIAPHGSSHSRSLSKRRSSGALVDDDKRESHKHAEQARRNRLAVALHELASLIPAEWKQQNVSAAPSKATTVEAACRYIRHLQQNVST
Assay: relative binding free energy (BET-seq); higher = weaker binding
Details: reference: library average

Sequence | relative binding free energy
ACATTCACGTGTAGTT | 0.27 kcal/mol
GTTAGCACGTGGGCTG | -0.12 kcal/mol
AGTAACACGTGAGGGG | 0.21 kcal/mol
TGCTTCACGTGTGAGC | 0.35 kcal/mol
AAGTGCACGTGATAGT | 0 kcal/mol
TGTGGCACGTGGGCTA | -0.21 kcal/mol
TAAATCACGTGTCTTG | 0.08 kcal/mol
TCTTTCACGTGTAAGG | 0.34 kcal/mol
ACGGGCACGTGCGAGG | -0.05 kcal/mol
ATGGACACGTGAAAGT | 0.29 kcal/mol
TTCGGCACGTGGATGG | -0.08 kcal/mol
GTTACCACGTGTTTTT | -0.03 kcal/mol
GGGCTCACGTGTGTAG | 0.26 kcal/mol
TGTGTCACGTGTGGGT | 0.19 kcal/mol
GTCGGCACGTGGGTTT | -0.19 kcal/mol
CGGGCCACGTGTTTGT | 0.06 kcal/mol
TATAACACGTGAGGTC | 0.38 kcal/mol
CGTATCACGTGAAAGT | 0.43 kcal/mol
TGGCACACGTGCGGGT | -0.17 kcal/mol
GGTAACACGTGGGGTT | -0.03 kcal/mol
GGGGTCACGTGAGACA | 0.44 kcal/mol
ATACGCACGTGTGTAT | -0.01 kcal/mol
GTGAGCACGTGGATGG | -0.02 kcal/mol

Sequence | relative binding free energy
GTTAGCACGTGGGTCT | -0.13 kcal/mol
TTATACACGTGTTTTG | 0 kcal/mol
TTGGTCACGTGCTGCT | 0.01 kcal/mol
AGGGGCACGTGACAAG | -0.11 kcal/mol
GCGCTCACGTGGGGGG | 0.03 kcal/mol
GAGAGCACGTGACGGG | 0.05 kcal/mol
CTTATCACGTGGATGG | 0.15 kcal/mol
AGGGTCACGTGAAAAG | 0.25 kcal/mol
TGGCGCACGTGGAGTT | -0.09 kcal/mol
CTTGACACGTGGTCGG | -0.07 kcal/mol
TTCATCACGTGCAGTT | 0.15 kcal/mol
ACAGTCACGTGTGAGT | 0.04 kcal/mol
AAGTTCACGTGGGGGA | 0.16 kcal/mol
TTTGGCACGTGGGAGC | -0.07 kcal/mol
TGCAGCACGTGAAGGG | 0.17 kcal/mol
TTCATCACGTGTTTGG | 0 kcal/mol
GTTTGCACGTGCTAAG | 0.02 kcal/mol
AATTGCACGTGAAGTG | 0.18 kcal/mol
TTAGACACGTGAGGAA | 0.33 kcal/mol
GTACGCACGTGTATGT | -0.04 kcal/mol
GGTGTCACGTGCTTCG | 0.03 kcal/mol
AATGACACGTGTTGAT | 0 kcal/mol
ATATGCACGTGGAATG | 0.07 kcal/mol

Sequence | relative binding free energy
GTTAACACGTGTTGGT | 0.18 kcal/mol
TGATGCACGTGTAAGT | 0.15 kcal/mol
TCATGCACGTGTGTCG | -0.02 kcal/mol
AGGCTCACGTGAGTGT | 0.43 kcal/mol
TTGCTCACGTGTCGGT | 0.28 kcal/mol
GTGTGCACGTGAAAAG | 0.23 kcal/mol
TATGTCACGTGGTGAA | -0.04 kcal/mol
AGGGGCACGTGGGAAG | -0.19 kcal/mol
TAGTCCACGTGGTTTA | -0.09 kcal/mol
CGCGGCACGTGAGGGG | 0.15 kcal/mol
GTAGACACGTGACGGT | 0.17 kcal/mol
AGTGTCACGTGAGCGC | 0.21 kcal/mol
CCGCGCACGTGGTGGG | -0.21 kcal/mol
ATCTACACGTGTGTAG | 0.13 kcal/mol
CCGTACACGTGGGGTG | -0.13 kcal/mol
CGTTACACGTGCGTTG | 0.07 kcal/mol
TTATTCACGTGCAGGT | 0.24 kcal/mol
AGATGCACGTGGGGTC | -0.17 kcal/mol
GCTTTCACGTGGGTTC | 0.25 kcal/mol
TGGTACACGTGTGGTG | 0.17 kcal/mol
GTGTCCACGTGAAGTT | 0.27 kcal/mol
TCGTACACGTGAGTTA | 0.34 kcal/mol
GGGGTCACGTGTGCGG | 0.11 kcal/mol

Sequence | relative binding free energy
GTTTGCACGTGCAGCT | 0.04 kcal/mol
AATGTCACGTGATTGT | 0.36 kcal/mol
GAGGTCACGTGTCTGG | 0.25 kcal/mol
TGTTACACGTGTCGGT | 0.16 kcal/mol
AGTGACACGTGGTGAA | -0.1 kcal/mol
AGTTTCACGTGCGGCT | 0.1 kcal/mol
ATCTTCACGTGAGGTT | 0.29 kcal/mol
AGTTACACGTGTGGTA | 0.18 kcal/mol
CGTATCACGTGAGCTT | 0.49 kcal/mol
TGCACCACGTGGGGCG | -0.08 kcal/mol
CTGGGCACGTGGTATG | -0.2 kcal/mol
AATGGCACGTGTATGG | -0.1 kcal/mol
GTTGTCACGTGGAGCG | 0.21 kcal/mol
GTATGCACGTGTAAGA | 0.02 kcal/mol
TTAGTCACGTGTGAGC | 0.12 kcal/mol
GAGGACACGTGACTGG | 0.27 kcal/mol
CTCGGCACGTGGAGTG | 0.1 kcal/mol
GCGCGCACGTGGATGG | -0.15 kcal/mol
TGCAGCACGTGGGCTT | -0.27 kcal/mol
TGGGTCACGTGCAGAA | 0.14 kcal/mol
TTGGTCACGTGTTGAG | 0.14 kcal/mol
TGGCTCACGTGTGTTA | 0.19 kcal/mol
TATGCCACGTGGGGGC | -0.33 kcal/mol

Sequence | relative binding free energy
CATTTCACGTGGCGGT | 0.08 kcal/mol
AGCACCACGTGGGGTG | -0.25 kcal/mol
CGTGTCACGTGGGGAG | -0.04 kcal/mol
ATTATCACGTGGCTGG | 0.18 kcal/mol
TTAGACACGTGGGCGT | -0.09 kcal/mol
TTGGTCACGTGCGCGG | -0.02 kcal/mol
AAATTCACGTGGCTTG | 0.21 kcal/mol
ATTAGCACGTGGGTGG | -0.21 kcal/mol
TATGTCACGTGATGAA | 0.11 kcal/mol
TAGTTCACGTGTCGAA | 0.34 kcal/mol
ATTGTCACGTGTAATT | 0.2 kcal/mol
ATAAACACGTGGGTTG | -0.24 kcal/mol
TAAAGCACGTGAAAGT | 0.29 kcal/mol
ATGGACACGTGGAGTG | -0.06 kcal/mol
AGGTTCACGTGGTCGA | 0.33 kcal/mol
TGATACACGTGGTGTA | -0.06 kcal/mol
TTCAGCACGTGGGGTG | -0.29 kcal/mol
TTGGTCACGTGTATGC | 0.04 kcal/mol
GGGTGCACGTGAGTGA | 0.38 kcal/mol
TGAGGCACGTGTCAGT | -0.15 kcal/mol
TTTGGCACGTGGTGAG | -0.13 kcal/mol
GATGTCACGTGTGTCA | 0.12 kcal/mol
TGAGGCACGTGCTCGT | -0.17 kcal/mol

Source: the BET-seq Pho4 binding data (Le et al. 2018)
